Assay results from patent US20230159453A1 (COCRYSTAL PHARMA, INC., priority 2020, published 2023).

Biological target: Noro protease (Norovirus, UniProt Q83883)
Test: Norovirus protease inhibition assay (Noro-Norwalk FRET protease assay)
Conditions: IC50 (μM), peptide substrate 10 μM, 90 minutes at 37° C., compounds 200 μM to 10.2 nM

`CC1(C)CC(C[C@@H](C=O)NC(=O)[C@H](CC2CCCCC2)NC(=O)OC2CCCC2Cc2cccc(Cl)c2)C(=O)N1` (stereo partly drawn) [Compound C156, 2-(3-Chlorobenzyl)cyclopentyl ((2S)-3-cyclohexyl-1-((1-(5,5-dimethyl-2-oxopyrrolidin-3-yl)-3-oxopropan-2-yl)amino)-1-oxopropan-2-yl)carbamate] and `O=C[C@H](CC1CC2(CCCC2)NC1=O)NC(=O)[C@H](CC1CCCCC1)NC(=O)OC1CCCC1Cc1cccc(Cl)c1` (stereo partly drawn) [Compound C165, 2-(3-chlorobenzyl)cyclopentyl ((2S)-3-cyclohexyl-1-oxo-1-((1-oxo-3-(2-oxo-1-azaspiro[4.4]nonan-3-yl)propan-2-yl)amino)propan-2-yl)carbamate] are within 1.5-fold of each other in IC50: 6.1 µM for the first, 5.5 µM for the second.

Compared with `CCCC[C@H](NC(=O)OC(c1ccccc1)C(C)(C)c1cccc(Cl)c1)C(=O)N[C@H](C=O)C[C@@H]1CCNC1=O` (stereo partly drawn) [Compound C157, 2-(3-Chlorophenyl)-2-methyl-1-phenylpropyl ((S)-1-oxo-1-(((S)-1-oxo-3-((S)-2-oxopyrrolidin-3-yl)propan-2-yl)amino)hexan-2-yl) carbamate], `CCCC[C@H](NC(=O)OC(c1ccccc1)C(C)(C)c1cccc(Cl)c1)C(=O)N[C@@H](CC1CCNC1=O)C(=O)C(N)=O` (stereo partly drawn) [Compound C164, 2-(3-Chlorophenyl)-2-methyl-1-phenylpropyl ((S)-1-(((S)-4-amino-3,4-dioxo-1-((S)-2-oxopyrrolidin-3-yl)butan-2-yl)amino)-1-oxohexan-2-yl) carbamate] is 46-fold higher in IC50: 3.1 µM for the first, 143 µM for the second.

Compared with `O=C(N[C@@H](CC1CCCCC1)C(=O)N[C@@H](C[C@@H]1CCNC1=O)C(=O)C(=O)NC1CC1)OC(Cc1cccc(Cl)c1)c1ccccc1` (some centres unmarked) [Compound C158], `O=C(N[C@@H](CC1CCCCC1)C(=O)N[C@@H](C[C@@H]1CCNC1=O)C(=O)C(=O)NC1CC1)OCc1cccc(Cl)c1` [Compound C173] is 2.3-fold lower in IC50: 100 µM for the first, 44 µM for the second.

`O=C(N[C@@H](CC1CCCCC1)C(=O)N[C@@H](C[C@@H]1CC2(CCCC2)NC1=O)C(=O)C(=O)NC1CC1)OC1CCCC1Cc1cccc(Cl)c1` (stereo partly drawn) [Compound C159, 2-(3-Chlorobenzyl)cyclopentyl ((2S)-3-cyclohexyl-1-((4-(cyclopropylamino)-3,4-dioxo-1-(2-oxo-1-azaspiro[4.4]nonan-3-yl)butan-2-yl)amino)-1-oxopropan-2-yl)carbamate] and `CS(=O)(=O)N1CCC2(CC1)CC(CC(NC(=O)[C@H](CC1CCCCC1)NC(=O)OC1CCCC1Cc1cccc(Cl)c1)C(=O)C(=O)NC1CC1)C(=O)N2` (stereo partly drawn) [Compound C177, 2-(3-chlorobenzyl)cyclopentyl ((2S)-3-cyclohexyl-1-((4-(cyclopropylamino)-1-(8-(methylsulfonyl)-2-oxo-1,8-diazaspiro[4.5]decan-3-yl)-3,4-dioxobutan-2-yl)amino)-1-oxopropan-2-yl)carbamate] are within 1.5-fold of each other in IC50: 75.3 µM for the first, 100 µM for the second.

Going from `CC(C)(c1cccc(Cl)c1)C(OC(=O)N[C@@H](CC1CCCCC1)C(=O)N[C@H](C=O)C[C@@H]1CCNC1=O)c1ccccc1Cl` (stereo partly drawn) [Compound C160, 1-(2-chlorophenyl)-2-(3-chlorophenyl)-2-methylpropyl ((S)-3-cyclohexyl-1-oxo-1-(((S)-1-oxo-3-((S)-2-oxopyrrolidin-3-yl)propan-2-yl)amino)propan-2-yl) carbamate] to `CC(C)(c1cccc(Cl)c1)[C@@H](OC(=O)N[C@@H](CC1CCCCC1)C(=O)N[C@@H](C[C@@H]1CCNC1=O)C(=O)C(N)=O)c1cccc(F)c1` [Compound C182], the IC50 rises from 4.3 µM to 106 µM (25-fold).

Compared with `COc1cccc2[nH]c(C(=O)N[C@@H](CC(C)C)C(=O)N[C@@H](C[C@@H]3CCNC3=O)C(=O)COP(=O)(O)O)cc12` [Compound C161, (S)-3-((S)-2-(4-methoxy-1H-indole-2-carboxamido)-4-methylpentanamido)-2-oxo-4-((S)-2-oxopyrrolidin-3-yl)butyl dihydrogen phosphate], `CC(C)C[C@H](NC(=O)OC(c1ccccc1)C(C)(C)c1cccc(Cl)c1)C(=O)N[C@@H](C[C@@H]1CCNC1=O)C(=O)C(=O)NC1CC1` (stereo partly drawn) [Compound C166, 2-(3-Chlorophenyl)-2-methyl-1-phenylpropyl ((S)-1-(((S)-4-(cyclopropylamino)-3,4-dioxo-1-((S)-2-oxopyrrolidin-3-yl)butan-2-yl)amino)-4-methyl-1-oxopentan-2-yl)carbamate] is lower in IC50: greater than 200 µM for the first, 13.9 µM for the second. The second is the more potent here.

`CC1(C)CC(C[C@@H](C=O)NC(=O)[C@H](CC2CCCCC2)NC(=O)OC(Cc2cccc(Cl)c2)c2cccc(Cl)c2)C(=O)N1` (stereo partly drawn) [Compound C162, 1,2-Bis(3-Chlorophenyl)ethyl ((2S)-3-cyclohexyl-1-((1-(5,5-dimethyl-2-oxopyrrolidin-3-yl)-3-oxopropan-2-yl)amino)-1-oxopropan-2-yl)carbamate] and `CC1(C)CC(CC(C=O)NC(=O)[C@H](CC2CCCCC2)NC(=O)OC(Cc2cccc(Cl)c2)c2ccccc2)C(=O)N1` (stereo partly drawn) [Compound C180, 2-(3-Chlorophenyl)-1-phenylethyl ((2S)-3-cyclohexyl-1-((1-(5,5-dimethyl-2-oxopyrrolidin-3-yl)-3-oxopropan-2-yl)amino)-1-oxopropan-2-yl) carbamate] are within 1.5-fold of each other in IC50: 8.3 µM for the first, 6.1 µM for the second.

`CC(C)C[C@H](NC(=O)OC(c1ccccc1)C(C)(C)c1cccc(Cl)c1)C(=O)N[C@@H](CC1CC(C)(C)NC1=O)C(=O)C(=O)NC1CC1` (stereo partly drawn) [Compound C163, 2-(3-Chlorophenyl)-2-methyl-1-phenylpropyl ((2S)-1-((4-(cyclopropylamino)-1-(5,5-dimethyl-2-oxopyrrolidin-3-yl)-3,4-dioxobutan-2-yl)amino)-4-methyl-1-oxopentan-2-yl) carbamate] and `CCCC[C@H](NC(=O)OC(c1ccccc1)C(C)(C)c1cccc(Cl)c1)C(=O)N[C@@H](CC1CCNC1=O)C(=O)C(=O)NC1CC1` (stereo partly drawn) [Compound C174, 2-(3-Chlorophenyl)-2-methyl-1-phenylpropyl ((S)-1-(((S)-4-(cyclopropylamino)-3,4-dioxo-1-((S)-2-oxopyrrolidin-3-yl)butan-2-yl)amino)-1-oxohexan-2-yl) carbamate] are within 1.5-fold of each other in IC50: 62.8 µM for the first, 57.9 µM for the second.

Compared with `CC1(C)CC(C[C@H](NC(=O)[C@H](CC2CCCCC2)NC(=O)OC2CCCC2Cc2cccc(Cl)c2)C(=O)C(=O)NC2CC2)C(=O)N1` (stereo partly drawn) [Compound C167, 2-(3-Chlorobenzyl)cyclopentyl ((2S)-3-cyclohexyl-1-((4-(cyclopropylamino)-1-(5,5-dimethyl-2-oxopyrrolidin-3-yl)-3,4-dioxobutan-2-yl)amino)-1-oxopropan-2-yl)carbamate], `CC1(C)CC(C[C@H](NC(=O)[C@H](CC2CCCCC2)NC(=O)OC(Cc2cccc(Cl)c2)c2cccc(Cl)c2)C(=O)C(=O)NC2CC2)C(=O)N1` (stereo partly drawn) [Compound C172, 1,2-Bis (3-Chlorophenyl) ethyl ((2S)-3-cyclohexyl-1-((4-(cyclopropylamino)-1-(5,5-dimethyl-2-oxopyrrolidin-3-yl)-3,4-dioxobutan-2-yl)amino)-1-oxopropan-2-yl)carbamate] is higher in IC50: 38.6 µM for the first, greater than 200 µM for the second. The first is the more potent here.

Going from `O=C(N[C@@H](CC1CCCCC1)C(=O)N[C@@H](CC1CC2(CCCCC2)NC1=O)C(=O)CO)OCc1cccc(Cl)c1` (stereo partly drawn) [Compound C168, 3-Chlorobenzyl ((2S)-3-cyclohexyl-1-(((2S)-4-hydroxy-3-oxo-1-(2-oxo-1-azaspiro[4.5]decan-3-yl)butan-2-yl)amino)-1-oxopropan-2-yl)carbamate] to `O=C(N[C@@H](CC1CCCCC1)C(=O)NC(CC1CC2(CCOCC2)NC1=O)C(=O)C(=O)NC1CC1)OCc1cccc(Cl)c1` (stereo partly drawn) [Compound C176, 3-Chlorobenzyl ((2S)-3-cyclohexyl-1-((4-(cyclopropylamino)-3,4-dioxo-1-(2-oxo-8-oxa-1-azaspiro[4.5]decan-3-yl)butan-2-yl)amino)-1-oxopropan-2-yl)carbamate], the IC50 falls from greater than 200 µM to 69.7 µM.

Compared with `CC(C)C[C@H](NC(=O)OC1(Cc2cccc(Cl)c2)CCC1)C(=O)N[C@@H](CC1CC2(CCOCC2)NC1=O)C(=O)C(=O)NC1CC1` (stereo partly drawn) [Compound C169, 1-(3-chlorobenzyl)cyclobutyl ((2S)-1-((4-(cyclopropylamino)-3,4-dioxo-1-(2-oxo-8-oxa-1-azaspiro[4.5]decan-3-yl)butan-2-yl)amino)-4-methyl-1-oxopentan-2-yl)carbamate], `CS(=O)(=O)N1CCC2(CC1)CC(C[C@H](NC(=O)[C@H](CC1CCCCC1)NC(=O)OCc1cccc(Cl)c1)C(=O)C(=O)NC1CC1)C(=O)N2` (stereo partly drawn) [Compound C170, 3-Chlorobenzyl ((2S)-3-cyclohexyl-1-(((2S)-4-(cyclopropylamino)-1-(8-(methylsulfonyl)-2-oxo-1,8-diazaspiro[4.5]decan-3-yl)-3,4-dioxobutan-2-yl)amino)-1-oxopropan-2-yl)carbamate] is lower in IC50: greater than 200 µM for the first, 52.5 µM for the second. The second is the more potent here.

Going from `O=C(N[C@@H](CC1CCCCC1)C(=O)N[C@@H](CC1CC2(CCCCC2)NC1=O)C(=O)C(=O)N1CCCC1)c1cc2ccccc2[nH]1` (stereo partly drawn) [Compound C171, N-((2S)-3-cyclohexyl-1-((3,4-dioxo-1-(2-oxo-1-azaspiro[4.5]decan-3-yl)-4-(pyrrolidin-1-yl)butan-2-yl)amino)-1-oxopropan-2-yl)-1H-indole-2-carboxamide] to `COc1cccc2[nH]c(C(=O)N[C@@H](CC3CCCCC3)C(=O)NC(C=O)CC3CC4(CCOCC4)NC3=O)cc12` (stereo partly drawn) [Compound C179, N-((2S)-3-cyclohexyl-1-oxo-1-((1-oxo-3-(2-oxo-8-oxa-1-azaspiro[4.5]decan-3-yl)propan-2-yl)amino)propan-2-yl)-4-methoxy-1H-indole-2-carboxamide], the IC50 falls from greater than 200 µM to 3.1 µM. The second is the more potent here.

Going from `CS(=O)(=O)N1CCC2(CC1)CC(C[C@@H](C=O)NC(=O)[C@H](CC1CCCCC1)NC(=O)OCc1cccc(Cl)c1)C(=O)N2` (stereo partly drawn) [Compound C178, 3-Chlorobenzyl ((2S)-3-cyclohexyl-1-(((2S)-1-(8-(methylsulfonyl)-2-oxo-1,8-diazaspiro[4.5]decan-3-yl)-3-oxopropan-2-yl)amino)-1-oxopropan-2-yl)carbamate] to `CC(C)(c1cccc(Cl)c1)[C@H](OC(=O)N[C@@H](CC1CCCCC1)C(=O)N[C@@H](C[C@@H]1CCNC1=O)C(=O)C(N)=O)c1cccc(F)c1` [Compound C183], the IC50 rises from 3.5 µM to 16.2 µM (4.6-fold).
